# The list shows a part of the results. Cleavage of a single-stranded DNA pool by Rep nickase domains was read by sequencing at 3 µM enzyme and 37 °C for 1 h; the strands have 90 letters, of which the middle is given. The score is log2 (uncut reads / reads without enzyme); uncut sequences lie near 0, cut ones below; no hit call is given. Reads are scaled to the total; values above 0 arise when much of the pool is cut.
# Key:
# Assay in all cases: uncleaved DNA left, log2 of reads against the no-enzyme library (log2 ratio); higher = less cleavage (more negative = more Rep cleavage of the k-mer); sequences stand for … in CTCGTCCG…ACCGGAGA
# [1] = system: T1, Rep nickase domain of Muscovy duck circovirus
# T1 sequence (protein, residues 1-111, tag omitted): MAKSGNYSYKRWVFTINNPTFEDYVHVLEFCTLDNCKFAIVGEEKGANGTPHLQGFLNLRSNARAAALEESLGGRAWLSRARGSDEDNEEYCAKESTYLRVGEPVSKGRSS
# Method: (§1)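 A pool of 90-nt single-stranded DNAs with seven random bases just before the constant AC of the nick site (name = the seven bases) was cut by 3 µM recombinant His6-SUMO-tagged Rep nickase domain (300 nM DNA, 50 mM HEPES pH 8.0, 50 mM NaCl, 1 mM MnCl2, 1 h, 37 °C, three replicates). Uncut DNA was amplified and sequenced.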
# [2] = system: T2, Rep nickase domain of banana bunchy top virus
# T2 sequence (protein, residues 1-94, tag omitted): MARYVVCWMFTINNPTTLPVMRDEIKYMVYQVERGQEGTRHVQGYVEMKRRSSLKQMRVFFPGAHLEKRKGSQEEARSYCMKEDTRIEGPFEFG
# Method: as §1
# [3] = system: T3, Rep nickase domain of cabbage leaf curl virus
# T3 sequence (protein, residues 1-116, tag omitted): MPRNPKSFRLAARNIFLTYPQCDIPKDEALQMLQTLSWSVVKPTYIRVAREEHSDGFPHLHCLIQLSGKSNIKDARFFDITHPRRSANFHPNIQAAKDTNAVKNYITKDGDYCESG
# Method: as §1
# [4] = system: T4, Rep nickase domain of chickpea chlorotic dwarf virus
# T4 sequence (protein, residues 1-124, tag omitted): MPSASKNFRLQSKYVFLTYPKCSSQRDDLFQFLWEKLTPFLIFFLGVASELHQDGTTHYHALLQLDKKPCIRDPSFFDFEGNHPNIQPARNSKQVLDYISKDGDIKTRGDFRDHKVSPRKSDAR
# Method: as §1
# [5] = system: T5, Rep nickase domain of faba bean necrotic yellows virus
# T5 sequence (protein, residues 1-98, tag omitted): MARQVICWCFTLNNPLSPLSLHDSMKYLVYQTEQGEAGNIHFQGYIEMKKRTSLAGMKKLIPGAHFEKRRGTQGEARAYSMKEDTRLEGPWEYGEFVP
# Method: as §1
# [6] = system: T6, Rep nickase domain of maize striate mosaic virus
# T6 sequence (protein, residues 1-117, tag omitted): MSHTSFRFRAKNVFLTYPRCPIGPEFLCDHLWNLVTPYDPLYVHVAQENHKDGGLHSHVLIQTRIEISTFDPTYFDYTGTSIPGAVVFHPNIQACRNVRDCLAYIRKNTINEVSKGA
# Method: as §1
# [7] = system: T7, Rep nickase domain of porcine circovirus 2
# T7 sequence (protein, residues 2-116, tag omitted): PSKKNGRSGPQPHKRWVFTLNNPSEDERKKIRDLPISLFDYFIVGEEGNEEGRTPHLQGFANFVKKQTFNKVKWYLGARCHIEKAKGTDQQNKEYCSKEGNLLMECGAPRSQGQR
# Method: as §1
# [8] = system: T8, Rep nickase domain of tomato golden mosaic virus
# T8 sequence (protein, residues 1-124, tag omitted): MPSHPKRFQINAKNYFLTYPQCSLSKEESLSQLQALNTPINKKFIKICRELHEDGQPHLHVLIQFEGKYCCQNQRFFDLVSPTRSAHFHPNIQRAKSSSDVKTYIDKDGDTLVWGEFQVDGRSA
# Method: as §1
# [9] = system: T9, Rep nickase domain of tomato yellow leaf curl virus
# T9 sequence (protein, residues 1-136, tag omitted): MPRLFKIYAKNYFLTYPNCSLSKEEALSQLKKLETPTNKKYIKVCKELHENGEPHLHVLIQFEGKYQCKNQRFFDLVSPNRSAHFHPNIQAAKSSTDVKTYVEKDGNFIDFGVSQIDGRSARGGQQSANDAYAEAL
# Method: as §1
# [10] = system: T10, Rep nickase domain of wheat dwarf virus
# T10 sequence (protein, residues 1-137, tag omitted): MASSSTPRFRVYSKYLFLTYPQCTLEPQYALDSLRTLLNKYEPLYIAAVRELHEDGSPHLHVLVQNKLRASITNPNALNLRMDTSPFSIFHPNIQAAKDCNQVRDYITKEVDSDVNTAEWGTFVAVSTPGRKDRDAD
# Method: as §1
Sequence,uncleaved DNA left (log2) [1],uncleaved DNA left (log2) [2],uncleaved DNA left (log2) [3],uncleaved DNA left (log2) [4],uncleaved DNA left (log2) [5],uncleaved DNA left (log2) [6],uncleaved DNA left (log2) [7],uncleaved DNA left (log2) [8],uncleaved DNA left (log2) [9],uncleaved DNA left (log2) [10]
GGAAATC,0.045,0.241,0.889,1.82,0.0577,2.1,0.235,-0.0227,0.137,0.181
AGCATTT,-0.0376,0.0119,-0.133,-1.67,-0.0793,-0.424,-0.982,-0.0848,0.0157,-0.0814
GACGGTA,0.0136,-0.113,0.373,0.337,-0.0894,0.87,0.0722,3.1e-05,-0.0997,0.00135
ATATCAG,0.0167,-0.063,-0.758,-0.375,0.0525,-1.19,0.178,0.00636,0.0218,-0.0309
CATTCCC,-0.15,-0.397,0.0996,-0.2,0.0454,-0.449,-0.695,-0.059,0.0247,0.0869
CCTGACT,-0.128,-0.151,-0.0318,-0.947,-0.132,0.305,-0.309,-0.126,-0.0828,-0.252
GTTACGC,0.093,0.127,0.31,0.477,0.079,0.496,0.0929,0.0665,0.166,0.111
GAAGTGC,0.0833,0.0469,-0.461,-0.415,0.0737,-0.83,0.0645,0.0463,0.0991,0.00724
CATCTCC,-0.0177,-0.0318,-0.262,-0.0393,-0.0952,1.4,0.0279,-0.112,-0.0127,-0.0214
GCTTTGT,0.0299,0.0361,-0.122,0.169,0.0866,-0.309,-0.204,-0.0242,-0.0516,0.0717
CATCGAT,0.0826,-0.142,-0.105,-0.296,-0.0224,-0.2,-0.135,-0.127,-0.138,-0.067
CGCCTTA,-0.0722,0.0569,0.129,-0.623,0.102,-0.237,-0.183,0.0594,0.0631,-0.0813
TCCTGCA,-0.022,-0.0201,-0.61,-1.14,-0.0174,-1.13,-0.202,-0.133,-0.0239,-0.0716
CTGGACG,0.0984,0.109,-0.303,-0.325,0.173,-0.808,0.203,0.132,0.0629,0.0165
TACCATG,-0.0411,-0.0901,-0.637,-0.969,-0.0489,-0.924,-0.291,-0.094,-0.0984,-0.204

# From the supplement of paper PMC7826260
